# Article PMC12136788
# The other results are listed elsewhere or left out.
# T1: UNK ZnF1-3 (human, UniProt Q9C0B0 31-174)
# T1 sequence: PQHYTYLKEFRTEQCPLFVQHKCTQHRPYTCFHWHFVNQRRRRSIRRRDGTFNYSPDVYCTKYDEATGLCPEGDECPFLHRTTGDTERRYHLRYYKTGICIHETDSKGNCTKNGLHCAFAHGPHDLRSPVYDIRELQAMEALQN
# B1: chr7:140404665:140404666:+_ENSG00000090266_ENST00000247866|hu_hu|hu_hu_hu_mus_False|58_78 (ssRNA)
# RNA: GGGAGUUCUACAGUCCGACGAUCUGCUCCUACUCGUCCAGAGAGUUUACAGUGUCAGUCUUCAUCAUCAGGAGGGAUACCUAAUUCUUCAUCUGUCCACUGUGAAGGAUCUGGAUAUGAAAAGUGACCCAGCACAGCAUCCGACAACAGAGGAUUGAGCAUCA
# B2: chr9:53391610:53391611:-_ENSMUSG00000032047_ENSMUST00000034547|mus_mus|FALSE|FALSE (ssRNA)
# RNA: GGGAGUUCUACAGUCCGACGAUCCAGAGAAACAGCUCCUCCGUGGAUAUUUACUUUUUGGGGGUCAAUCUCCAGCAUUUUAAUGUUGGCUAGCACAACCACACUGAAUGCUUCAUUUACUUCCCACAUGGCAAUGUCUUCUUUCAACAGAGGAUUGAGCAUCA
# B3: chr2:130910683:130910684:-_ENSG00000136699_ENST00000351288|hu_mus|FALSE|FALSE (ssRNA)
# RNA: GGGAGUUCUACAGUCCGACGAUCGGAGCACAGAGCUGCCAUCUGGCCUGCAAAUCUACGGUUGAUGGCAGAGGACAGCCGGAAGAGUGCACGGACCAGACUGGUGAUUUCGUAGCUCCGGAUGGGCUGCAGCUCUAAGUCUCCCAACAGAGGAUUGAGCAUCA
# B4: chr12:110729878:110729879:+_ENSG00000174437_ENST00000539276|hu_hu|FALSE|FALSE (ssRNA)
# RNA: GGGAGUUCUACAGUCCGACGAUCUUCGAUGGCAUUUUCAGCAUUUCUUUCCUGCCAUACACCCACAAUUGCAUUGGCUACUAAUAUGAGUAAAAUUACAAAAGGUUCUACAAAGGCUGUAAUUGUUUCUUCACCUUCUUCAAACAACAGAGGAUUGAGCAUCA
# B5: chr2:42509997:42509998:+_ENSG00000143924_ENST00000318522|hu_mus|hu_hu_hu_mus_True|88_108 (ssRNA)
# RNA: GGGAGUUCUACAGUCCGACGAUCUCGCUGAGUUCUCUCCUCAUAAUUAAAUAGUACUACCACUGAGGCGAUAAAAUAAACUAUCUCCCCUGUGGGAAGCAGGUAUACAUUCGCUCUACAGUCCUUUCCUCGAUAACCGUAUACCAACAGAGGAUUGAGCAUCA
# B6: chr11:58768410:58768411:+_ENSMUSG00000078851_ENSMUST00000108817|mus_hu|FALSE|FALSE (ssRNA)
# RNA: GGGAGUUCUACAGUCCGACGAUCCUUCUUGUUGUCGCGCGCCGCGUUGCCGGCAAGCUCCAGGAUCUCGGCAGUCAAGUACUCGAGCACCGCGGCCAGAUAGACCGGGGCGCCGGCGCCCACGCGCUCCGAAUAGUUGCCCUUCAACAGAGGAUUGAGCAUCA
# B7: chr7:56126341:56126342:+_ENSG00000146731_ENST00000540286|hu_mus|hu_hu_hu_mus_True|78_88 (ssRNA)
# RNA: GGGAGUUCUACAGUCCGACGAUCCAUGUUUCUCCUCUUGGCUCUGCGCAGAGCAACUAUGCCUUCUUUCGCAAGGGCAUCUAAGGAAAAGGGGUCAAUCCCCUUUUGAUUAAUAACGACAAAUCCUUUAUCUGAGUCACCACACAACAGAGGAUUGAGCAUCA
# B8: chr2:48026839:48026840:+_ENSG00000116062_ENST00000540021|hu_hu|hu_hu_hu_mus_False|88_108 (ssRNA)
# RNA: GGGAGUUCUACAGUCCGACGAUCAUAGUGUGCCACUAGCGUCCUAAAUCUCGAACAGUGGCGGUCAUCCGAAAACUGGCCGAUGAAAAACUUGCCCAGUGAAGUGUCCACAAAGCAAACACCAUACACACGAGUGUGACCAGACAACAGAGGAUUGAGCAUCA
# B9: chr2:35971668:35971669:-_ENSMUSG00000026889_ENSMUST00000028251|mus_mus|motif|central (ssRNA)
# RNA: GGGAGUUCUACAGUCCGACGAUCAAGAAUUGGUACAAAUCAUAGACAUUGUUUAAAUACAAAUAAAUAGUUCUAGAUUCGGAAGAAACAACUCUAGAUAAUCCUAAGUAUUCUCUAGGUUCCUAUUAAAAAUAGAAGGCUAUUCAACAGAGGAUUGAGCAUCA
# B10: chr12:48538843:48538844:+_ENSG00000152556_ENST00000359794|hu_hu|motif|central (ssRNA)
# RNA: GGGAGUUCUACAGUCCGACGAUCCUCUUUGAUUUUCCCAGACAUCCAGUUCAUAGCCUUGGCGCCCAUCUUAGUGGCAAAAUUCCGGUCAAAUGGGGUUGGGCUCCCACCCUGCUGCAUGUGACCAAGCACAUUCUUCCUGCUCAACAGAGGAUUGAGCAUCA
# B11: chrX:77158196:77158197:+_ENSG00000131174_ENST00000481445|hu_mus|motif|central (ssRNA)
# RNA: GGGAGUUCUACAGUCCGACGAUCUCCAAUUUGUGUGGCUGUAUAUGUCCAUGUAGAAACACAGAAGAUGGCUCCACCUGCGGAUAUAGCAUUCCCAUAUUUGUCAUGGAAACUAGGUGCCCUCUUCUGGUGGCUCUGCCUUGCCAACAGAGGAUUGAGCAUCA
# B12: chr1:109605286:109605287:-_ENSG00000197780_ENST00000461096|hu_mus|hu_hu_hu_mus_True|18_108 (ssRNA)
# RNA: GGGAGUUCUACAGUCCGACGAUCAAGAACAAUAACAACAUUCAGUAACCUCUUUAAAUGCAAUUAUCCUUAUUAUAAGCUAAGCAGAAUAAUAAUUUAAUACCGUAAGUGAACUACCACAAAACCUUGAACCGCGAAAAUGGUCAACAGAGGAUUGAGCAUCA
# B13: 61446480_61446600_460_CDS_ENSG00000126814_ENST00000261249|human|control|control (ssRNA)
# RNA: GGGAGUUCUACAGUCCGACGAUCUGCUUCCAAAAGCAUCUGUGUCAGGGAUGUCCAAGCUACUGGAAUCAACGAUUUUGAUUCAGUUAUGCUAUGGCUUUCCAGUUUCAGAAAUCUUCCUGAGAAUCCAAAUGGCCUCCAUAACAACAGAGGAUUGAGCAUCA
# B14: 121508962_121514323_1241_CDS_ENSG00000173226_ENST00000310864|human|control|control (ssRNA)
# RNA: GGGAGUUCUACAGUCCGACGAUCAAGUCUCAUGGCUCUCUGUCUUUGAAGUUGCAAUUGUAAUUUGAGGUCCUCUUCUUCCUUCUGCCUAUUUAUCUCCAGCAACAUCUUUGAUCGUUUGGAUCUGAAACUCCUCUGCAAAGCCAACAGAGGAUUGAGCAUCA
# B15: chr3:71021771:71021772:-_ENSG00000114861_ENST00000475937|hu_hu|FALSE|FALSE (ssRNA)
# RNA: GGGAGUUCUACAGUCCGACGAUCCACUGUCCAUACUGCCCCUUUAACGUUUUCUACUCGCACAAAACACUUGUGAAGACUAAGAUUAUGACGCACUGCAUUCUUCCACGUGGCCGCGUUGCGUCGGAAGUAAGCAAACAUUCGCAACAGAGGAUUGAGCAUCA
# B16: 4693242_4693362_2871_3pUTR_ENSMUSG00000066324_ENSMUST00000084949|mouse|control|control (ssRNA)
# RNA: GGGAGUUCUACAGUCCGACGAUCCUAUUAAAUUAAUACCAAGUUUCCAAACACCAAAACUGAAUUUUCAUCACACAAAGGCCAAUUUAGUGCCGUUACAUACUGUAACAUACUGUUACAUACUGUUAAGUACGGGGAAAAGCACAACAGAGGAUUGAGCAUCA
# B17: 32695338_32696170_6644_CDS_ENSG00000115760_ENST00000421745|human|control|control (ssRNA)
# RNA: GGGAGUUCUACAGUCCGACGAUCUGCUGCUUCAUCUUCAACAGUUGCCACAUAAUCCAGCAACCUGGACACCAGCAUAACAACCCAACUGAUCAUGGGAAUAUCUAGUACUCCUUCUGUCCUCCUAUGCAUGGGUAACUGUGGCAACAGAGGAUUGAGCAUCA
# B18: 48778067_48784991_354_3pUTR_ENSG00000154945_ENST00000285243|human|control|control (ssRNA)
# RNA: GGGAGUUCUACAGUCCGACGAUCUAAACAAGUCCAGCCGUUGACCUCAUUUUGGGAGUUCACAUCCACCCCGCUCUCCACCAGUUUCUGCACCUCCCGAAUGUCCCCUAAGGCCGCGGCCUCCCGCAGCCUCUCCUGCUGCUCCAACAGAGGAUUGAGCAUCA
# B19: chr8:28048094:28048095:+_ENSG00000134014_ENST00000521015|hu_hu|FALSE|FALSE (ssRNA)
# RNA: GGGAGUUCUACAGUCCGACGAUCUUGCGCCACUGCACUCCAGCCUGGGUGACACAGCGAGACUUUCUCAGAAAAAAAAAAAAAAUUGCAAGUAAUGGCUUCUGUGGAAGCAAAUCUUGAUUUAGGGGCACACAACCUGAGACUCAACAGAGGAUUGAGCAUCA
# B20: chr1:109605286:109605287:-_ENSG00000197780_ENST00000461096|hu_mus|hu_hu_hu_mus_True|8_108 (ssRNA)
# RNA: GGGAGUUCUACAGUCCGACGAUCAAGAACAAUAACAACAUUCAGUAACCUCUUUAAAUGCAAUUAUCCUUAUUAUAAGCUAAGCAGAAUAAUAAUUUAAUACCGUAAGUGAACUACACACAAAGCCGUGUAUUCAGAAAUGGUCAACAGAGGAUUGAGCAUCA
# B21: chr18:12984129:12984130:+_ENSG00000085415_ENST00000262124|hu_hu|FALSE|FALSE (ssRNA)
# RNA: GGGAGUUCUACAGUCCGACGAUCCUUUCUGCCAGCAGAAGAUCCAUUUAAUGAAUUCUGAAGACUUGGAAUAGUUGAACCUAGGGAAGGAUUUGAGGUUCCCUGCUGAGAACUCCCAUUGACUGGGCUCCCAUUACCUUUCAACAACAGAGGAUUGAGCAUCA
# B22: chr14:66974463:66974464:+_ENSMUSG00000022044_ENSMUST00000074523|mus_hu|mus_mus_mus_hu_False|8_18 (ssRNA)
# RNA: GGGAGUUCUACAGUCCGACGAUCUUGUAGGACGACUUAUUCAGGGGAUCGGCCAGGAAGCAGGAGCAGAACAAGGACACCAGCGGGAGCUCCUUCAUCUUCUCUUUGUAGGCAGCAAGAGUCAUGUUGGCUGGAAUUGGUGGCCAACAGAGGAUUGAGCAUCA
# Target: T1, UNK ZnF1-3
# Test: nsRBNS (natural sequence RNA bind-n-seq); RBNS binding buffer (assumed for nsRBNS): 25 mM Tris pH 7.5, 150 mM KCl, 3 mM MgCl2, 0.01% Triton X-100, 500 ug/ml BSA, 20 U/ml SUPERase-In, 4 C; UNK is unkempt and MSI1 is Musashi-1; names of the RNAs are library labels; protein concentration not given here; high values mean tight binding
row,Binder,binding signal [enrichment R]
1,B1,1.08
2,B2,0.74
3,B3,0.73
4,B4,1.04
5,B5,1.38
6,B6,0.533
7,B7,0.647
8,B8,1.09
9,B9,1.17
10,B10,0.739
11,B11,0.677
12,B12,0.954
13,B13,0.693
14,B14,0.704
15,B15,0.965
16,B16,0.869
17,B17,0.686
18,B18,0.967
19,B19,1.62
20,B20,0.741
21,B21,0.75
22,B22,2.2
